# Source: article PMC4336329 (PLoS ONE, 2015)
# Screen size: about 310,000 compounds; about 14,000 (4.5%) showed an effect of 50% or more. Effects have a minus sign here. The list shows a part of the results.
# Target: human ether-à-go-go-related gene (hERG) potassium channel (human, UniProt Q12809)
# Experiment: primary screen, population patch clamp on CHO cells stably expressing hERG
# 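Further: peak tail current of the secondary pulse compared with the same well before compound.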
# human ether-à-go-go-related gene (hERG) potassium channel, sequence (Q12809 whole entry, looked up): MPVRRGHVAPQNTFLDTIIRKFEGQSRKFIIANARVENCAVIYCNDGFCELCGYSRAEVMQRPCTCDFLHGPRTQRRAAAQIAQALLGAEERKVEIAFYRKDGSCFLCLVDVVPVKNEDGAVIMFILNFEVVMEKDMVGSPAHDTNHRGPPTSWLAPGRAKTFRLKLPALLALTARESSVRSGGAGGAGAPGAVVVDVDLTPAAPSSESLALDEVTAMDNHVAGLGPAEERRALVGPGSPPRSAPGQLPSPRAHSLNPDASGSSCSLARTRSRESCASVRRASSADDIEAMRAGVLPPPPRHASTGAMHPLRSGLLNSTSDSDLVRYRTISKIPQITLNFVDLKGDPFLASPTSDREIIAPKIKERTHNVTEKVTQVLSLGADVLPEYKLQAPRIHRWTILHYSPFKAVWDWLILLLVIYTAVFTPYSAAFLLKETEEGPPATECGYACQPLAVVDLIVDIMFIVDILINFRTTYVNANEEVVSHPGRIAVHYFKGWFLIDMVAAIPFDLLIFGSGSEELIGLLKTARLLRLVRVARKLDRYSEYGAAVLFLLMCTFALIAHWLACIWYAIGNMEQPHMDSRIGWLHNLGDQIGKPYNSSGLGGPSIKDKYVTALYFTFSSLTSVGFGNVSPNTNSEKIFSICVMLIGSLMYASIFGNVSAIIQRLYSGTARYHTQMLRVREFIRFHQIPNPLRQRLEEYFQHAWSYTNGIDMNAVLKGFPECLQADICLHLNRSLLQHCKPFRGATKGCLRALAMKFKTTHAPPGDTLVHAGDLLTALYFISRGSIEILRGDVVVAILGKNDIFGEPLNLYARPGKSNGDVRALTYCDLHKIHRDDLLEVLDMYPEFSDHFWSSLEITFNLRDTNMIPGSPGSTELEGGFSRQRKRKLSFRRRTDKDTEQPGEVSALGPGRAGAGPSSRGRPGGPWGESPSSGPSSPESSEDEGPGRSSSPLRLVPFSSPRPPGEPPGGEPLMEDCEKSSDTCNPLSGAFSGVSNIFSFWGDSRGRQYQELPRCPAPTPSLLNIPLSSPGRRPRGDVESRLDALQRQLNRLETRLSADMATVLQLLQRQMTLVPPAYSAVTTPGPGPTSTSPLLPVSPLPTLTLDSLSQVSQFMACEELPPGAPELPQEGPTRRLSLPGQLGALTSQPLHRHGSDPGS
row,SMILES,"hERG current change (%, negative = inhibition) at 10uM"
1,CCOc1ccccc1N(CC(=O)NC1CCCCC1)S(=O)(=O)c1ccccc1,-27%
2,CN(Cc1ccc(C(C)(C)C)cc1)C(=O)Cc1ccc(S(=O)(=O)N2CCOCC2)s1,-13.8%
3,Cc1cc(C(=O)OCC(=O)N2CCc3ccccc32)ccc1[N+](=O)[O-],2.88%
4,COc1ccc(-n2ccnc2SCC(=O)NC2CCCC2)cc1,-6.12%
5,Cc1cc2cc(CN(Cc3ccco3)C(=S)NCC3CCCO3)c(=O)[nH]c2cc1C (centres unmarked),-3.49%
6,Cc1ncc(S(=O)(=O)c2ccccc2)c(-c2ccc(Cl)cc2Cl)n1,-4.95%
7,COc1cc([N+](=O)[O-])cc2cc(C(=O)N3CCCC3)c(=O)oc12,9.56%
8,OCC1(CCOc2ccccc2)CCN(C2Cc3ccccc3C2)CC1,-72.8%
9,CCCCCn1c(=N)n(CC(O)COc2ccccc2OC)c2ccccc21 (centres unmarked),-75.9%
10,COc1ccccc1C(=O)NCC(=O)N1CCN(S(=O)(=O)c2ccc3c(c2)OCCO3)CC1,11.7%
11,CS(=O)(=O)N(CC(=O)N1CCN(c2ccccc2)CC1)Cc1ccc(Cl)cc1,-28.6%
12,O=C(CSc1nnc(-c2ccccc2Cl)o1)N1CCCCC1,-8.83%
13,O=C(O)C1=CC[C@@H](c2ccc(Cl)cc2)N(S(=O)(=O)c2ccc(Cl)cc2)[C@H]1c1cccc(Cl)c1,25.9%
14,Cl.c1ccc(SCCN2CCN(c3ccccc3)CC2)cc1,-10.9%
15,COc1cccc(C(Nc2ccccn2)c2c(NC(=O)c3ccco3)sc(C)c2C)c1 (centres unmarked),10.8%
16,Cc1ccc(S(=O)(=O)N2CCN(C(=O)C3CCCC3)CC2)cc1C,13.6%
17,CC(C)(C)c1ccc(N2C(=O)Cc3c2nc(N)c(C#N)c3N)cc1,-8.89%
18,COc1ccc(S(=O)(=O)N(CCc2ccccc2)CC(=O)O)cc1Cl,-8.05%
19,COCCn1c(C)cc(/C=C(\C#N)C(=O)OC(C)C(=O)Nc2ccc(NC(C)=O)cc2)c1C (centres unmarked),12.1%
20,O=C(c1cc2ccccc2o1)N1CCN(C/C=C/c2ccccc2)CC1,-62.2%
21,C=CCn1c(SCc2nc3ccccc3nc2C)nnc1-c1ccoc1C,-13.3%
22,CCc1ccccc1NC(=O)CCc1c(C)nn(-c2ccc(N3CCOCC3)nn2)c1C,-1.33%

row,SMILES,"hERG current change (%, negative = inhibition) at 10uM"
1,Cc1cnc(NC(=O)Cn2cnc3c2c(=O)n(C)c(=O)n3C)s1,0.958%
2,COCCNC(=O)C(=O)NCCN1CCNCC1.O,22.8%
3,O=C(O)C(=O)O.O=C(c1cccs1)N1CCN(C2CCCCC2)CC1,-32.4%
4,CCOC(=O)Cn1c(=O)c2c(nc3n2CCN3Cc2ccccc2)n(C)c1=O,-22.2%
5,CC(=O)OC(Cn1nc(C)cc1C)c1ccccc1 (centres unmarked),5.36%
6,COc1ccc(OC)c(NC(=O)NC2(C(F)(F)F)Oc3ccccc3O2)c1,-2.33%
7,CC(=O)NS(=O)(=O)c1ccc(NC(=O)c2cc(-c3ccc(C)c(C)c3)nc3ccccc23)cc1,12.3%
8,COc1cc(N2CCCC2)c(OC)cc1/C=C(/C#N)c1cccc(F)c1,9.14%
9,Cc1nc(-c2nnc(SCC(=O)Nc3cc(Cl)cc(Cl)c3)n2C)cs1,5.49%
10,CC(C)N1CCN(Cc2ccoc2)CC1CCO (centres unmarked),12.2%
11,C[n+]1cccc2ccc3c(c21)OC(N)=C(C#N)C3c1ccccc1.[I-] (centres unmarked),-20.2%
12,Cc1nc(-c2ccc(S(=O)(=O)Nc3cc(F)ccc3F)cc2)co1,-14.1%
13,CCCCC(OC(=O)CN1C(=O)COc2ccccc21)C(=O)NC1CCCCC1 (centres unmarked),-30.8%
14,COc1cc(/C=N/NC(=O)c2ccc(CSc3nc4ccccc4[nH]3)cc2)ccc1O,11%
15,COC(=O)c1cc(S(=O)(=O)N2CCN(Cc3ccccc3)CC2)c[nH]1,8.38%
16,O=C(Nc1ccccc1)C1Cc2ccccc2CN1C(=O)c1ccco1 (centres unmarked),6.64%
17,COc1cc(NC(=O)c2ccc3c(c2)OCCO3)ccc1NC(=O)c1ccccc1Cl,8.88%
18,O=C(Nc1ccccc1Cl)C1CCCN(c2ncnc3c2nc2n3CCCCC2)C1 (centres unmarked),-59.4%
19,CCOc1ccc(S(=O)(=O)N2CCC(C(=O)NCc3ccco3)CC2)cc1C,4.16%
20,O=C(NC(=S)NCc1ccc(-c2nc3ccccc3s2)cc1)c1ccco1,34%
21,COc1cccc(-c2nc(-c3ccccn3)no2)c1,2.54%
22,O=C(O)/C=C\c1ccccc1Oc1ccc(F)cc1,13.3%

row,SMILES,"hERG current change (%, negative = inhibition) at 10uM"
1,Cc1ccc(-n2nnc3ccccc3c2=O)cc1C,-2.63%
2,Cc1ccccc1C(=O)N1CCC(C(=O)Nc2sccc2C(N)=O)CC1,-23.5%
3,CCc1cc2c3c(c(=O)oc2cc1OC)CCCC3,6.26%
4,COc1cccc(/C=C2/Sc3ccc(C(=O)NCCN4CCCC4)cc3NC2=O)c1,-39.1%
5,CCc1ccc(C(=O)NNC(=O)CC2OC(=O)c3ccccc32)cc1 (centres unmarked),-48.3%
6,CCN(CC(=O)NCc1ccc(F)cc1)C(=O)c1oc2ccccc2c1C,-43.9%
7,CCOC(=O)c1c[nH]c2c3c(ccc2c1=O)CCCC3,-7.96%
8,COC(=O)[C@@H](NC(=O)c1ccc2c(c1)S(=O)(=O)c1ccccc1C2=O)C(C)C,8.57%
9,Cc1ccc(-n2c(C)c(C)c3c(NCCCO)ncnc32)cc1,-9.69%
10,Cc1ccc2[nH]c(=O)c(CN(CCc3ccccc3)Cc3nnnn3CC3CCCO3)cc2c1 (centres unmarked),-16%
11,CCN(CC(=O)NC(C)C)C(=O)c1ccc(Cl)cc1,2.39%
12,COCc1ccc(CN2CCCCC2C(=O)Nc2ccc(Oc3ccccc3)nc2)o1 (centres unmarked),-0.373%
13,O=C(Nc1nnc(-c2ccccc2)s1)c1ccccc1F,13.5%
14,CC(C)c1ccc(NC(=O)COc2ccc(S(=O)(=O)N3CCOCC3)cc2)cc1,-1.05%
15,Cc1ccc(C)c(OCC(=O)NCC(c2ccco2)N2CCCCC2)c1 (centres unmarked),-2.72%
16,N#Cc1nc(-c2ccccc2)oc1NCc1ccco1,8.64%
17,CCCCCc1cc(=O)oc2c(C(CCN(CC)CC)c3ccc(OC)cc3)c(OC)cc(OC)c12 (centres unmarked),-55.2%
18,Cc1ccc(/C=C/C(=O)Oc2ccc(C#N)cc2)o1,17.5%
19,CC1=Nc2cc(C(=O)N3CCCCC3)ccc2Sc2ccc(C)cc21,-17.8%
20,CCc1cc(=O)oc2c(CN3CCN(C)CC3)c(O)ccc12,8.25%
21,COc1ccc(S(=O)(=O)N2CCCCC2)cc1NC(=O)c1ccc(Cl)nc1,-19.1%
22,O=C(O)CN1C(=O)/C(=C\c2cc(Br)ccc2OCc2ccc(Cl)cc2)SC1=S,15.2%

row,SMILES,"hERG current change (%, negative = inhibition) at 10uM"
1,Cc1ccc(/C=C2\SC(N)=NC2=O)s1,11.2%
2,Cc1cc(C)cc(N2C(=O)C3NN=C(C(=O)OCc4ccccc4)C3C2=O)c1 (centres unmarked),-28.1%
3,COCCn1c(=NC(=O)c2ccc(S(=O)(=O)N3CCCc4ccccc43)cc2)sc2cc(S(C)(=O)=O)ccc21,3.1%
4,CCSc1nnc2c(n1)OC(C)(C)Nc1ccccc1-2,15.4%
5,O=C(COC(=O)c1cccs1)Nc1ccccc1[N+](=O)[O-],3.28%
6,CCCNC(=O)Cn1cnc2sc(C(=O)N3CCCC(C(=O)OCC)C3)c(C)c2c1=O (centres unmarked),9.74%
7,O=C(NCc1ccco1)c1c2c(nc3ccccc13)CCC2,-24.8%
8,CC(C)(C)c1nnc(NC(=O)CCn2cnc3ccccc3c2=O)s1,5.12%
9,NC(=O)c1ccc(NC(=O)COC(=O)CCc2ccc(S(=O)(=O)N3CCCCC3)cc2)cc1,14.6%
10,CC(C)C[C@H](NC(=O)Nc1cccc(Br)c1)C(=O)O,10.3%
11,COc1ccc(CCC(=O)Nc2ccc(S(=O)(=O)Nc3nccc(C)n3)cc2)cc1,44.2%
12,CC1=Nc2ccc(C)cc2/C1=C/c1c(N)n2oc(C)cc2nc1=O,18.9%
13,CC1(C)CC(=O)CC(C2(O)C(=O)N(Cc3ccccc3)c3ccccc32)O1 (centres unmarked),7.55%
14,CCN(CC)S(=O)(=O)c1ccc2[nH]c(=O)cc(C(=O)NCC(c3ccco3)N3CCCC3)c2c1 (centres unmarked),-10.8%
15,CC(=O)Nc1ccc(-c2nc3cc(Cl)ccc3o2)cc1,17.6%
16,NS(=O)(=O)c1ccc(NC(=S)N2CCN(c3ccc(Cl)c(Cl)c3)CC2)cc1,11.8%
17,S=C(Nc1nc2c(s1)CCCC2)NC1CC1,9.12%
18,COc1ccccc1C(OC(=O)c1ccco1)C(=O)NC(C)(C)C (centres unmarked),-3.56%
19,Cc1nn(Cc2c(F)c(F)c(F)c(F)c2F)c(C)c1NC(=O)c1ccc(COc2ccc(Cl)cc2Cl)o1,13.3%
20,Cc1cccc(NC(=O)CCN2CCOCC2)c1,4.24%
